Assay results published in paper PMC7795115.
Substitutions are numbered along the chain they refer to. Results are given in words; binding and its absence hold for the method and conditions named. Binding seen in cells or lysates may run through a third protein. Some entries that bind do so weakly or less than the wild type.

Protein sequences, listed by entry. Tags and fused reporters are not part of them.
UniProt P40763: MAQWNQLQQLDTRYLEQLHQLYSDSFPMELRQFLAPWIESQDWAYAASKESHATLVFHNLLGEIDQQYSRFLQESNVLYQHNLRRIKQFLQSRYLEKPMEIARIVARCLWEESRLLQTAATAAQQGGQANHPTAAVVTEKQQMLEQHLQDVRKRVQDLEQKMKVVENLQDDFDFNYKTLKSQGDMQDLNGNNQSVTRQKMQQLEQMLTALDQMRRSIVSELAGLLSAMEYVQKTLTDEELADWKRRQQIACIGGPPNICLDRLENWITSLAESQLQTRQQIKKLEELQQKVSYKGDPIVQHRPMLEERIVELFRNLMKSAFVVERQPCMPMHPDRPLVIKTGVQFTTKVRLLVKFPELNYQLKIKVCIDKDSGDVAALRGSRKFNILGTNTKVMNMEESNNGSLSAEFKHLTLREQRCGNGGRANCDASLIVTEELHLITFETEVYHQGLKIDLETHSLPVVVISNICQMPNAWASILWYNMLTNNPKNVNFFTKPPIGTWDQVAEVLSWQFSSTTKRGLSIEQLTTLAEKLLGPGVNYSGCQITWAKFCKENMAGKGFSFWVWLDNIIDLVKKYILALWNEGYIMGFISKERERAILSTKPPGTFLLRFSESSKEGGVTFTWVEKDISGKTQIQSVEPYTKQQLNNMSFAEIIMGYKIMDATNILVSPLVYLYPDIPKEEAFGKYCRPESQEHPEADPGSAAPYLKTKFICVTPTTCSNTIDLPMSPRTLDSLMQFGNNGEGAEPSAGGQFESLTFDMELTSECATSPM

Legend:
[1] = molecular target: T1, α subunit of the inhibitor of the κB kinase (IKK) complex, IKKα, endogenous (human (endogenous in H-Ras MCF-10A and MDA-MB-231)) (UniProt O15111); assay: proximity ligation; Duolink in situ PLA on fixed, permeabilised H-Ras MCF-10A and MDA-MB-231 cells with anti-STAT3 and anti-IKKα; endogenous proteins
T1 sequence: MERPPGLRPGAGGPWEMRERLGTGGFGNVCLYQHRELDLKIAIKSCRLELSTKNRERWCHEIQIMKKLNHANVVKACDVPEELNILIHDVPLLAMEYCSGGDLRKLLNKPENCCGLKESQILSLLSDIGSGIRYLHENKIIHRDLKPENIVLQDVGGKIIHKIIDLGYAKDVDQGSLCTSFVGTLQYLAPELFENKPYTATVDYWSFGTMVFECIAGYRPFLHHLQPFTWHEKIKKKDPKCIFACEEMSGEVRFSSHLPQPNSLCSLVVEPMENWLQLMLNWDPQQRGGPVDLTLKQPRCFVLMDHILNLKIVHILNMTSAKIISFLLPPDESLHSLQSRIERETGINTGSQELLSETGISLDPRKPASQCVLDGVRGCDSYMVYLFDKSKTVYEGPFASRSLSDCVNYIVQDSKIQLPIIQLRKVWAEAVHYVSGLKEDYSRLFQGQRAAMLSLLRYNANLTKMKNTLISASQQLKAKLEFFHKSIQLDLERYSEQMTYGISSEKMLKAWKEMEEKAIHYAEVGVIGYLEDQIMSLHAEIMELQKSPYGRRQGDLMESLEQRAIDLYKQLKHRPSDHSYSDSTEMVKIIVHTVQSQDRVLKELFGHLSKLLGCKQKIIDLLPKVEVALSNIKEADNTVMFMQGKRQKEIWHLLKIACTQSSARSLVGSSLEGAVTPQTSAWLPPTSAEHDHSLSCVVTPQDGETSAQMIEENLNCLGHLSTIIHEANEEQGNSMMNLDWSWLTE

[2] = molecular target: T1, α subunit of the inhibitor of the κB kinase (IKK) complex, IKKα, endogenous (human (endogenous in H-Ras MCF-10A and MDA-MB-231)); assay: co-IP; endogenous proteins in H-Ras MCF-10A lysate; immunoprecipitation with IKKα or STAT3 antibody at 4 °C overnight, protein A/G beads, immunoblot for the other protein; IgG as negative control
[3] = molecular target: T2, IKKα K44A mutant, ectopically expressed from pcDNA3-IKKa mutant (K44A) (UniProt O15111); assay: proximity ligation; Duolink PLA in HEK293T cells transfected with STAT3 and IKKα WT or K44A
T2 sequence: T1 sequence with K44A

[4] = molecular target: T3, IKKα wild type, ectopically expressed from pcDNA3-IKKa WT (UniProt O15111); assay: as above
T3 sequence: T1 sequence

[5] = molecular target: T2, IKKα K44A mutant, ectopically expressed from pcDNA3-IKKa mutant (K44A); assay: co-IP; cells (HEK293T, MCF-10A, H-Ras MCF-10A) transfected with pCMV-HA-STAT3 plus pcDNA3-IKKa WT or K44A for 48 h; for WT against K44A followed by MG132 for 2 h; immunoprecipitation with IKKα or STAT3 antibodies, immunoblot
[6] = molecular target: T3, IKKα wild type, ectopically expressed from pcDNA3-IKKa WT; assay: as above

Substance | binding [1] | binding [2] | binding [3] | binding [4] | binding [5] | binding [6]
Signal transducer and activator of transcription 3 (STAT3), endogenous (from UniProt P40763 1-770) | binds | binds | – | – | – | –
STAT3, ectopically expressed from pCMV-HA-STAT3 (from UniProt P40763 1-770) | – | – | no binding | binds | no binding | binds
